According to the GPR68 mutational scans of Howard et al. (2025):

B1: GPR68, Q15743 (parent)
chain: MGNITADNSSMSCTIDHTIHQTLAPVVYVTVLVVGFPANCLSLYFGYLQIKARNELGVYLCNLTVADLFYICSLPFWLQYVLQHDNWSHGDLSCQVCGILLYENIYISVGFLCCISVDRYLAVAHPFRFHQFRTLKAAVGVSVVIWAKELLTSIYFLMHEEVIEDENQHRVCFEHYPIQAWQRAINYYRFLVGFLFPICLLLASYQGILRAVRRSHGTQKSRKDQIQRLVLSTVVIFLACFLPYHVLLLVRSVWEASCDFAKGVFNAYHFSLLLTSFNCVADPVLYCFVSETTHRDLARLRGACLAFLTCSRTGRAREAYPLGAPEASGKSGAQGEEPELLTKLHPAFQTPNSPGSGGFPTGRLA

Experiments:
[1] = variants of: B1; experiment: cAMP reporter score (Enrich2 score, wild type = 0); higher = more signal; HEK293T, FACS bins
[2] = variants of: B1; experiment: surface expression score (Enrich2 score, wild type = 0); higher = more signal; HEK293T, FACS bins

Variant	cAMP reporter score ([1]; pH 5.5)	cAMP reporter score ([1]; pH 6)	cAMP reporter score ([1]; pH 6, modulator: ogerin)	cAMP reporter score ([1]; pH 6.5, modulator: ogerin)	surface expression score [2]
G358_P360del	-0.233	-0.245	0.427	0.646	-0.002
G46M	–	-1.39	-1.03	-1.74	-2.23
S356_G357insGSG	0.677	1.07	0.456	0.663	0.848
L364_A365insGSG	1.13	0.565	1.25	0.889	1.15
F359_T361del	0.957	0.216	1.77	1.86	1.04
G357_G358insGSG	0.283	0.483	0.55	0.56	0.179
P354_G355insGS	0.072	0.036	0.376	-0.401	0.094
L364_A365insGS	0.58	1.88	0.177	–	1.44
R53_N54insGSG	–	0.361	–	-0.439	–
L364_A365del	1.57	–	1.02	0.69	1.32
F359_P360insGS	0.149	0.533	0.302	0.827	0.132
P351_N352insG	-0.073	1.18	–	1.24	1.39
P351_S353del	0.83	0.426	0.924	0.414	0.172
G362_R363insGS	0.975	–	0.387	2.45	0.751
S353C	-0.171	-0.175	0.465	0.241	-0.295
S353I	0.847	0.741	1.37	1.34	0.636
S353E	0.391	-0.147	0.363	0.72	0.679
S353P	-0.728	-0.299	-0.639	-0.304	-0.453
S353N	-0.191	–	0.355	0.359	-0.373
S353D	0.077	–	-0.123	-0.157	0.037
S353T	-0.214	-0.088	-0.369	-0.551	-0.399
S353H	0.739	0.753	0.16	1.03	0.268
S353L	0.123	–	0.047	-0.325	0.437

Variant	cAMP reporter score ([1]; pH 5.5)	cAMP reporter score ([1]; pH 6)	cAMP reporter score ([1]; pH 6, modulator: ogerin)	cAMP reporter score ([1]; pH 6.5, modulator: ogerin)	surface expression score [2]
S353A	0.372	0.364	0.454	-0.04	-0.252
S353K	-0.11	-0.879	-0.258	0.44	-0.411
S353Y	-0.464	0.248	-0.753	-0.323	0.109
S353G	-0.397	–	0.372	–	0.399
S353V	1.22	0.785	0.279	1.33	0.254
S353M	0.526	–	1.01	1.07	1.54
S353R	0.373	-0.328	0.399	-0.212	0.377
S353W	0.457	-0.843	0.411	0.299	0.215
V27_Y28insGSG	–	-0.595	-1.35	-1.64	-1.91
P360_T361insG	-0.164	-0.612	-0.314	-0.202	0.457
G357_F359del	0.979	-0.003	0.286	0.533	0.617
S353_P354del	0.178	0.508	0.686	0.598	-0.327
F359_P360insGSG	1.33	1.32	1.51	1.17	1.85
L92E	–	-0.661	-0.447	-2.75	–
H20_Q21insGSG	–	-0.099	-1.4	-1.18	-2.62
S356V	0.383	-0.898	1.15	1.53	-0.201
S356D	1.01	0.808	0.73	1.8	1.21
S356Q	0.833	2.86	1.45	1.09	0.382
S356E	1.15	–	0.917	0.913	0.069
S356N	0.384	–	1.04	0.837	1.03
S356W	-0.393	-0.541	-0.06	-0.576	-0.541
S356A	0.174	0.213	0.665	0.651	0.159
S356F	0.185	0.142	0.369	–	2.11

Variant	cAMP reporter score ([1]; pH 5.5)	cAMP reporter score ([1]; pH 6)	cAMP reporter score ([1]; pH 6, modulator: ogerin)	cAMP reporter score ([1]; pH 6.5, modulator: ogerin)	surface expression score [2]
S356L	0.145	–	0.637	0.519	-0.02
S356K	1.21	1.2	0.227	1.1	0.714
S356R	-0.295	-1.3	-0.367	0.325	-0.191
S356M	0.113	0.16	-0.189	0.237	0.129
S356P	-0.163	-0.245	-0.65	0.163	-0.044
S356Y	0.384	0.938	0.759	0.657	0.893
S356H	1.49	–	1.38	1.27	–
S356G	0.28	–	0.11	0.347	0.267
S356C	0.472	–	0.128	-0.021	0.198
S356T	0.633	-0.911	0.857	0.182	0.559
R363_A365del	0.383	-0.69	0.063	0.334	-0.048
S356del	1.53	0.505	0.987	1.11	0.257
V26S	–	-0.724	-1.1	-1.58	–
V26R	–	-1.57	-0.744	-1.02	-2.02
L60_C61del	–	0.479	-0.663	-1.93	-2.77
T18D	–	-0.445	0.137	–	-0.448
S353del	0.231	–	0.449	0.07	-0.46
P75T	–	-0.482	–	–	-0.428
G355_S356insG	1.84	–	2.27	1.46	0.997
I99_L101del	–	-1.21	–	-1.62	-2.29
T361_G362insGS	0.306	1.35	0.284	0.526	-0.443

The least precise scores are not listed. The source holds two more conditions with little spread; they are left out. Names with del lack the residues named; names with ins carry added residues between the positions named. For some assays here: The concentration of ogerin is not given here.
